Assay [1] addresses N-myc downstream regulated gene 1 (NDRG1), endogenous in HUVECs (human (endogenous in HUVECs)) (UniProt Q92597). In words: proximity ligation; Duolink PLA In Situ Red kit in HUVECs, mouse anti-PLCγ1 and rabbit anti-NDRG1 as primary antibodies; absence and presence of VEGF-A (5 min).
Assay [2] has the same target. The assay is described as follows: co-IP; HUVEC extract (IP lysis buffer: 50 mM Tris-HCl pH 8.0, 250 mM NaCl, 1 mM EDTA, 10% glycerol, 0.3% NP-40) incubated overnight at 4 °C with antibodies to NDRG1 or PLCγ1 in NET-gel buffer, Protein G Agarose; western blot; cells with or without VEGF-A. For orientation: A western blot detects proteins with antibodies after separation by electrophoresis.

Chains of the proteins cited; added tags and fusions are not shown. Lines headed by an entry give the natural chain unless they say otherwise; changes in a name come on top. A line that says so, or that is headed by a name, gives the form on record, which may keep a tag or linker. Residues count along the entry.
UniProt Q92597: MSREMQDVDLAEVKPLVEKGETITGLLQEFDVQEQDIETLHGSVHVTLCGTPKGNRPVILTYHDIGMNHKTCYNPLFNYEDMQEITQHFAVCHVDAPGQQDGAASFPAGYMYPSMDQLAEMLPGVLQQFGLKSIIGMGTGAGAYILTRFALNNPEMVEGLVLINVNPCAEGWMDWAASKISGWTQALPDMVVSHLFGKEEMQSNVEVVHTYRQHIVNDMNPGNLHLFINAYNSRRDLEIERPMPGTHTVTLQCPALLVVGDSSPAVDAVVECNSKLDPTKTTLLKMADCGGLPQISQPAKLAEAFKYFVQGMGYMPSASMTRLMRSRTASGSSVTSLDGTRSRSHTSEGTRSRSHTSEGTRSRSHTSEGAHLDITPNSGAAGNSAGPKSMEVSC
GST-tagged NDRG1 deletion mutant Δ3 (total phosphorylation sites on the C-terminal domain, 307–394AA, deleted): residues 1-306 of Q92597
GST-tagged NDRG1 deletion mutant Δ1 (N-terminal domain 1–89AA deleted): residues 90-394 of Q92597

In a further assay the target is GST-tagged NDRG1 (UniProt Q92597). In words: pull-down; GST fusion proteins immobilised on Glutathione Sepharose 4B, incubated with total cell lysate of HUVECs overnight at 4 °C; X-buffer (50 mM Tris-HCl pH 8.0, 1 mM EDTA, 120 mM NaCl, 0.5% NP-40, 10% glycerol, 1 mM PMSF); western blot with anti-PLCγ1; only the target purified.
For assay [3], the target named is GST-tagged NDRG1 deletion mutant Δ1 (N-terminal domain 1–89AA deleted) (UniProt Q92597). The assay is described as above.
Assay [4] addresses GST-tagged NDRG1 deletion mutant Δ3 (total phosphorylation sites on the C-terminal domain, 307–394AA, deleted) (UniProt Q92597). The assay is described as above.

Results are given in words; binding and its absence hold for the method and conditions named. In cells and extracts the contact can be indirect. Some results given as binding are weak or reduced against the parent protein; the word gives no strength.

B1: phospholipase Cγ1 (PLCγ1), endogenous in HUVECs (enzyme, UniProt P19174 1-1290)
chain: MAGAASPCANGCGPGAPSDAEVLHLCRSLEVGTVMTLFYSKKSQRPERKTFQVKLETRQITWSRGADKIEGAIDIREIKEIRPGKTSRDFDRYQEDPAFRPDQSHCFVILYGMEFRLKTLSLQATSEDEVNMWIKGLTWLMEDTLQAPTPLQIERWLRKQFYSVDRNREDRISAKDLKNMLSQVNYRVPNMRFLRERLTDLEQRSGDITYGQFAQLYRSLMYSAQKTMDLPFLEASTLRAGERPELCRVSLPEFQQFLLDYQGELWAVDRLQVQEFMLSFLRDPLREIEEPYFFLDEFVTFLFSKENSVWNSQLDAVCPDTMNNPLSHYWISSSHNTYLTGDQFSSESSLEAYARCLRMGCRCIELDCWDGPDGMPVIYHGHTLTTKIKFSDVLHTIKEHAFVASEYPVILSIEDHCSIAQQRNMAQYFKKVLGDTLLTKPVEISADGLPSPNQLKRKILIKHKKLAEGSAYEEVPTSMMYSENDISNSIKNGILYLEDPVNHEWYPHYFVLTSSKIYYSEETSSDQGNEDEEEPKEVSSSTELHSNEKWFHGKLGAGRDGRHIAERLLTEYCIETGAPDGSFLVRESETFVGDYTLSFWRNGKVQHCRIHSRQDAGTPKFFLTDNLVFDSLYDLITHYQQVPLRCNEFEMRLSEPVPQTNAHESKEWYHASLTRAQAEHMLMRVPRDGAFLVRKRNEPNSYAISFRAEGKIKHCRVQQEGQTVMLGNSEFDSLVDLISYYEKHPLYRKMKLRYPINEEALEKIGTAEPDYGALYEGRNPGFYVEANPMPTFKCAVKALFDYKAQREDELTFIKSAIIQNVEKQEGGWWRGDYGGKKQLWFPSNYVEEMVNPVALEPEREHLDENSPLGDLLRGVLDVPACQIAIRPEGKNNRLFVFSISMASVAHWSLDVAADSQEELQDWVKKIREVAQTADARLTEGKIMERRKKIALELSELVVYCRPVPFDEEKIGTERACYRDMSSFPETKAEKYVNKAKGKKFLQYNRLQLSRIYPKGQRLDSSNYDPLPMWICGSQLVALNFQTPDKPMQMNQALFMTGRHCGYVLQPSTMRDEAFDPFDKSSLRGLEPCAISIEVLGARHLPKNGRGIVCPFVEIEVAGAEYDSTKQKTEFVVDNGLNPVWPAKPFHFQISNPEFAFLRFVVYEEDMFSDQNFLAQATFPVKGLKTGYRAVPLKNNYSEDLELASLLIKIDIFPAKENGDLSPFSGTSLRERGSDASGQLFHGRAREGSFESRYQQPFEDFRISQEHLADHFDSRERRAPRRTRVNGDNRL
Consider B1, for which the binding result in assay [1] is recorded as “binds”; in assay [2] it was “binds”; with GST-tagged NDRG1, “binds”; in assay [3], “binds”; in assay [4], “no binding”.

Source of the values: paper PMC7060337.
